Data: the antibiotic and cytotoxicity screens of Wong et al. (2023)
This is one part of the list.

test system: HSkMC (human skeletal muscle cells); experiment: cytotoxicity call (relative viability < 0.9); conditions: 10 µM

| Compound | cytotoxicity call |
| --- | --- |
| Cc1noc(C)c1S(=O)(=O)N(C)C[C@H]1OCCCC[C@@H](C)Oc2ccc(NS(C)(=O)=O)cc2C(=O)N([C@@H](C)CO)C[C@@H]1C | inactive |
| C[C@@H]1CN([C@H](C)CO)C(=O)c2c(c3ccccc3n2C)-c2ccccc2CO[C@@H]1CN(C)C(=O)[C@H](C)c1ccccc1 | active |
| C[C@@H]1CN([C@@H](C)CO)C(=O)Cc2cc(NC(=O)CCCCCC(=O)Nc3ccccc3N)ccc2O[C@@H]1CN(C)C(=O)Nc1ccccc1 | inactive |
| CCOC(=O)CC1=NC(=O)CS1 | inactive |
| C[C@H](CO)N1C[C@H](C)[C@H](CN(C)Cc2ccncc2)Oc2c(NC(=O)Nc3ccc(C(F)(F)F)cc3)cccc2C1=O | inactive |
| C[C@H](CO)N1C[C@H](C)[C@@H](CN(C)C(=O)Nc2ccc(C(F)(F)F)cc2)Oc2ccc(NC(=O)Nc3ccc4c(c3)OCO4)cc2CC1=O | inactive |
| COc1ccc(NC(=O)Nc2ccc3c(c2)C(=O)N([C@@H](C)CO)C[C@@H](C)[C@H](CN(C)CC2CC2)OCCCC[C@@H](C)O3)cc1 | inactive |
| C[C@@H]1CN([C@H](C)CO)C(=O)c2cc(C#CC3CC3)cnc2O[C@H]1CN(C)S(=O)(=O)c1cccc(F)c1 | inactive |
| CC(CO)(CO)NS(=O)(=O)c1ccccc1 | inactive |
| CC(C)[N+](C)(CCOC(=O)C1c2ccccc2Oc2ccccc21)C(C)C.[Br-] | inactive |
| C[C@@H]1CN([C@H](C)CO)C(=O)c2cc(NC(=O)Cc3cn(C)c4ccccc34)ccc2O[C@H]1CN(C)Cc1ccc(Cl)c(Cl)c1 | active |
| CC(=O)n1cc([C@H]2C=C(C(=O)N3CCCCCCC3)O[C@@H](OCc3ccc(CO)cc3)C2)c2ccccc21 | inactive |
| COc1cccc(C#Cc2ccc3c(c2)O[C@@H](CN(C)S(=O)(=O)c2ccccc2F)[C@H](C)CN([C@@H](C)CO)S3(=O)=O)c1 | inactive |
| C[C@@H]1CCCCO[C@H](CN(C)C(=O)Nc2ccc3c(c2)OCO3)[C@H](C)CN([C@H](C)CO)C(=O)c2cc(NC(=O)C3CCCCC3)ccc2O1 | inactive |
| C[N+](C)(C)CCCC[C@@H]1NC(=O)[C@H]2C[C@@H](C(=O)NCCCCCNC(=O)CS)[C@@H](c3cccc(OCCO)c3)N2C1=O | inactive |
| C[C@H](CO)N1C[C@H](C)[C@@H](CN(C)Cc2ccc(C(=O)Nc3ccccc3N)cc2)Oc2ccc(NC(=O)Cn3cnnn3)cc2CC1=O | inactive |
| C[C@@H]1CN([C@@H](C)CO)S(=O)(=O)c2ccc(C#CC3(O)CCCC3)cc2O[C@H]1CN(C)C(=O)Nc1ccc(F)cc1 | inactive |
| C[C@@H]1CCCCO[C@@H](CN(C)C(=O)Nc2ccccc2)[C@H](C)CN([C@H](C)CO)C(=O)c2cc(NS(=O)(=O)c3ccc(Cl)cc3)ccc2O1 | inactive |
| C[C@@H]1CN([C@H](C)CO)C(=O)Cc2cc(NC(=O)CCCN(C)C)ccc2O[C@@H]1CN(C)Cc1ccc(Oc2ccccc2)cc1 | inactive |
| Cn1c(=O)c(=O)n(C)c2cc(S(=O)(=O)N3CCC[C@@H]3C(=O)O)ccc21 | inactive |

| Compound | cytotoxicity call |
| --- | --- |
| Cc1noc(C)c1NC(=O)Nc1ccc2c(c1)C(=O)N([C@H](C)CO)C[C@H](C)[C@H](CN(C)Cc1ccc(C(=O)O)cc1)OCCCC[C@@H](C)O2 | inactive |
| CN1C(=O)c2cc(NC(=O)c3cccs3)ccc2OC[C@H]2O[C@@H](CC(=O)NCC(F)(F)F)CC[C@@H]21 | inactive |
| O=C(N[C@H]1CCCCNC1=O)c1ccco1 | inactive |
| CC(C)NCC(O)COc1cccc2ccccc12.Cl (stereo not given) | inactive |
| C[C@H]1CN([C@@H](C)CO)C(=O)c2cc(-c3ccncc3)cnc2O[C@@H]1CN(C)S(=O)(=O)c1ccc(F)cc1 | inactive |
| COCCNC(=O)C[C@@H]1CC[C@H]2[C@@H](COc3ccc(NC(=O)Nc4cccc(F)c4)cc3C(=O)N2C)O1 | inactive |
| CCC(=O)NCc1nc(C)cc(N(C)C)n1 | inactive |
| CCc1cn([C@H]2C[C@H](O)[C@@H](CO)O2)c(=O)[nH]c1=O | inactive |
| C[C@H]1CN([C@@H](C)CO)C(=O)Cc2cc(NS(C)(=O)=O)ccc2O[C@@H]1CN(C)S(=O)(=O)c1cccs1 | inactive |
| COc1ccc(S(=O)(=O)Nc2ccc3c(c2)C(=O)N([C@@H](C)CO)C[C@H](C)[C@@H](CN(C)Cc2ccc(Cl)c(Cl)c2)OCCCC[C@@H](C)O3)cc1 | active |
| COc1ccc(NC(=O)N(C)C[C@@H]2OCCCC[C@@H](C)Oc3ccc(NC(=O)Cc4ccccc4)cc3C(=O)N([C@@H](C)CO)C[C@H]2C)cc1 | inactive |
| C[C@@H]1CN([C@H](C)CO)C(=O)c2cc(-c3ccncc3)cnc2O[C@H]1CN(C)S(=O)(=O)c1ccccc1 | inactive |
| C[C@@H]1CN([C@@H](C)CO)C(=O)Cc2cc(NC(=O)Cn3cnnn3)ccc2O[C@@H]1CN(C)Cc1ccncc1 | inactive |
| CO[C@@H](CN(C)C(=O)c1ccc2c(c1)OCO2)[C@H](C)CN([C@@H](C)CO)S(=O)(=O)c1ccc(C)cc1 | inactive |
| CCC1OC(=O)C(C)C(OC2CC(C)(OC)C(O)C(C)O2)C(C)C(OC2OC(C)CC(N(C)C)C2O)C(C)(OC)CC(C)C(=O)C(C)C(O)C1(C)O (stereo not given) | inactive |
| C[C@@H]1CN([C@@H](C)CO)C(=O)Cc2cc(NC(=O)CCCCCC(=O)Nc3ccccc3N)ccc2O[C@H]1CN(C)Cc1ccccc1 | inactive |
| C[C@@H]1CN([C@@H](C)CO)C(=O)Cc2cc(NC(=O)CCN3CCOCC3)ccc2O[C@H]1CN(C)Cc1ccccc1 | inactive |
| C[C@H](CO)N1C[C@H](C)[C@H](CN(C)S(=O)(=O)c2ccc(Cl)cc2)Oc2ccc(NC(=O)Nc3cccc4ccccc34)cc2CC1=O | inactive |
| C[C@@H]1CN([C@H](C)CO)C(=O)Cc2cc(NC(=O)Nc3cccc4ccccc34)ccc2O[C@H]1CN(C)C(=O)Nc1ccc(C(F)(F)F)cc1 | inactive |
| C[C@H](CO)N1C[C@H](C)[C@@H](CN(C)C(=O)Nc2ccccc2)OCCCC[C@H](C)Oc2ccc(NS(=O)(=O)c3ccc(Cl)cc3)cc2C1=O | inactive |
